{"source": "PubChem BioAssay AID1240", "about": "(Sanford-Burnham Center for Chemical Genomics, 2008)", "note": "The campaign covered roughly 50,000 compounds. About 800 (1.6%) showed an effect of 50% or more. The list shows a part of the results.", "data": [{"biological_target": "Bcl-2-like protein 10 (Homo sapiens) (UniProt Q9HD36)", "sequence (Q9HD36 whole entry, looked up)": "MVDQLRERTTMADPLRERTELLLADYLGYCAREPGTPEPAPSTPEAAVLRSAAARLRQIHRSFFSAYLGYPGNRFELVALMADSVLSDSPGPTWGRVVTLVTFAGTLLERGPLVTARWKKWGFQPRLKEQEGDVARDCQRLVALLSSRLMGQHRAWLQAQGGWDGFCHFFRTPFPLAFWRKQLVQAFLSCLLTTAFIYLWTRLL", "test": "TR3 peptide-Bcl-B binding displacers, biochemical primary FP assay, phenotype converters (AID 1240);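 note: 0% = Bcl-B with tracer peptide and DMSO and 100% = tracer peptide lacking Bcl-B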", "settings": "GST-Bcl-B / FITC-TR3 peptide fluorescence polarization; stronger effect = higher value; compound at 3.75 mg/L", "units": {"displacement": "%"}, "values": [{"smiles": "O=[N+]([O-])c1c(NC2CC2)ncnc1NC1CC1", "displacement": 10.9}, {"smiles": "Cc1ccccc1NC(=O)/C(=C\\c1cccs1)NC(=O)c1ccc(C(C)(C)C)cc1", "displacement": 16.9}, {"smiles": "COCc1cc(C(C)(C)C)c(O)c(O)c1C(C)(C)C", "displacement": 26}, {"smiles": "COC(=O)c1sc2nc(-c3ccccc3)nc(N)c2c1C", "displacement": -12.3}, {"smiles": "Cc1ccc(N(Cc2ccc(C(=O)Nc3cc(Cl)ccc3C)cc2)S(C)(=O)=O)cc1C", "displacement": -2.5}, {"smiles": "Cc1cc(C)c(NC(=S)NC(=O)/C=C/c2ccccc2)c([N+](=O)[O-])c1", "displacement": 11.6}, {"smiles": "COc1cc(/C=C2/C(=O)NC(=O)N(c3ccc(C(C)C)cc3)C2=O)cc([N+](=O)[O-])c1O", "displacement": -6.4}, {"smiles": "O=c1[nH]c(Nc2nc3ccccc3o2)nc(O)c1Cc1ccccc1", "displacement": 0.7}, {"smiles": "Cc1cc([N+](=O)[O-])ccc1N/C=C/C(=O)c1ccc(Br)cc1", "displacement": 18.4}, {"smiles": "COc1ccc(CCN2C(=O)CSC2c2ccc(Cl)cc2)cc1OC", "note": "(configuration not stated)", "displacement": -11.5}, {"smiles": "COc1ccc(CNCc2ccccc2Cl)cc1OC", "displacement": -13.1}, {"smiles": "O=[N+]([O-])c1ccc2c(c1)C1C=CCC1C(c1cccc(Cl)c1Cl)N2", "note": "(configuration not stated)", "displacement": 4.5}, {"smiles": "C=COCCNC(=O)C(=O)Nc1cccc(C)c1C", "displacement": -2.5}, {"smiles": "O=C(NC(Cc1ccccc1)C(=O)NCCc1c[nH]c2ccccc12)OCc1ccccc1", "note": "(configuration not stated)", "displacement": 12.8}, {"smiles": "O=C(NCc1ccco1)/C(=C/c1ccc([N+](=O)[O-])cc1)NC(=O)c1ccccc1Cl", "displacement": -4.6}, {"smiles": "COc1cc(C2SCC(=O)N2Cc2ccco2)cc([N+](=O)[O-])c1O", "note": "(configuration not stated)", "displacement": -11}, {"smiles": "O=C(NC(=S)Nc1ccc2oc(-c3ccccc3Br)nc2c1)c1ccccc1Cl", "displacement": -4.9}, {"smiles": "Cc1ccccc1OCCNC(=O)c1cccc2ccccc12", "displacement": 1.1}, {"smiles": "CCOc1ccccc1NC(=O)CCCOc1ccc(Cl)cc1Cl", "displacement": 13.5}, {"smiles": "O=C(Nc1ccccc1C(=O)Nc1ccc(Br)cc1)c1ccccc1", "displacement": 3}, {"smiles": "COc1ccc(-c2nnnn2C)cc1S(=O)(=O)Nc1cccc(C(F)(F)F)c1", "displacement": 11.3}, {"smiles": "Cc1cccc(OCCCn2ccnc2)c1", "displacement": -2.2}, {"smiles": "CCOc1ccc(-n2nc3ccc(NC(=S)NC(=O)c4ccco4)cc3n2)cc1", "displacement": 11.6}, {"smiles": "c1ccc(C2CCC(N3CCN(Cc4cccnc4)CC3)CC2)cc1", "note": "(configuration not stated)", "displacement": -0.2}, {"smiles": "O=C(NN1C(=O)/C(=C/c2ccccc2Cl)SC1=S)c1ccccc1O", "displacement": 16.5}, {"smiles": "COc1ccc(CCN2C(=O)/C(=C/c3c(NCCCn4ccnc4)nc4c(C)cccn4c3=O)SC2=S)cc1OC", "displacement": -1.5}, {"smiles": "CC(=O)NC1=NC(=O)/C(=C\\c2ccc3c(c2)OCO3)S1", "displacement": 130}, {"smiles": "COc1ccc(NC(=O)CCCN2C(=O)c3cccc4cccc(c34)C2=O)cc1", "displacement": -2.9}, {"smiles": "OCCNCCCOc1cc(Cl)ccc1Cl", "displacement": 0.7}, {"smiles": "COc1cccc(NS(=O)(=O)c2c(C)cc(C)cc2C)c1", "displacement": 1.6}, {"smiles": "Cc1ccc(NC(=O)CN(c2c(C)n(C)n(-c3ccccc3)c2=O)S(=O)(=O)c2ccccc2)cc1", "displacement": 9.3}, {"smiles": "C=CCN1C(=O)/C(=C/c2ccc(OC(=O)C34CC5CC(CC(C5)C3)C4)c(OC)c2)SC1=S", "displacement": 0.6}, {"smiles": "Cc1cc(C)c(NC(=O)COc2ccc(C)cc2C(C)(C)C)c(C)c1", "displacement": -1.3}, {"smiles": "CCn1c(C(O)(c2ccccc2)c2ccc(C)cc2)nc2ccccc21", "note": "(configuration not stated)", "displacement": -4.8}, {"smiles": "Cc1ccc(NC(=O)CS(=O)(=O)c2ccccc2)cc1", "displacement": 16.1}, {"smiles": "CCN(CC)S(=O)(=O)c1ccc(NC(=S)Nc2ccccc2)cc1", "displacement": -5.6}, {"smiles": "COc1ccc(COC(=O)NNC(=O)c2ccccc2Cl)cc1", "displacement": -1.8}, {"smiles": "CC(C)CCCC(C)CCOC(=O)CN1CCCC1", "note": "(configuration not stated)", "displacement": 5.3}, {"smiles": "CSc1ccc(/C=C(/NC(=O)c2ccccc2)C(=O)N2CCOCC2)cc1", "displacement": -6.6}, {"smiles": "CC(C)=N/N=C1/NC(=O)C(CC(=O)Nc2ccccc2Br)S1", "note": "(configuration not stated)", "displacement": -22.4}, {"smiles": "CCOC(=O)c1ccccc1NC(=O)CN(c1ccc(OC)c(Cl)c1)S(C)(=O)=O", "displacement": 3.9}, {"smiles": "O=C(CSc1nc2sc3c(c2c(=O)[nH]1)CCCC3)NCc1ccccn1", "displacement": -0.6}, {"smiles": "CCOC(=O)C1=C(N)OC2=C(C(=O)CCC2)C1c1ccc(C)cc1C", "note": "(configuration not stated)", "displacement": 3.3}, {"smiles": "CC(=O)NNC(=O)COc1ccc(Br)cc1", "displacement": 10.6}, {"smiles": "COc1ccc(CN=Cc2c(O)n(-c3cccc(Cl)c3)c(=O)[nH]c2=O)cc1", "displacement": 81.4}, {"smiles": "CCCCOc1ccc(S(=O)(=O)n2ccnc2C(C)C)cc1", "displacement": 2.9}, {"smiles": "O=[N+]([O-])c1ccc(S(=O)(=O)N/N=C/c2ccc3c(c2)OCO3)cc1", "displacement": 6.1}, {"smiles": "CCOC(=O)c1ccc(NS(=O)(=O)c2cc(C(=O)Nc3ccccc3)ccc2C)cc1", "displacement": -8.1}, {"smiles": "NNC(=O)/C(=C\\c1ccc(Cl)cc1)NC(=O)c1ccccc1", "displacement": -4}, {"smiles": "COc1cccc(/C=C(\\C#N)c2nc3ccccc3[nH]2)c1OCC#N", "displacement": 14.5}, {"smiles": "CC(C)NC(=O)CN(c1cccc(Cl)c1)S(C)(=O)=O", "displacement": 4.5}, {"smiles": "CN(Cc1ccccc1)C(=O)c1ccc([N+](=O)[O-])cc1Cl", "displacement": -12.3}, {"smiles": "CC(NC(=O)CN(c1ccc(F)cc1)S(=O)(=O)c1ccccc1)c1ccccc1", "note": "(configuration not stated)", "displacement": -6.4}, {"smiles": "COc1ccc(/C(O)=C2/C(=O)C(=O)N(CCCCCC(=O)O)C2c2cccc([N+](=O)[O-])c2)cc1", "note": "(configuration not stated)", "displacement": -14.6}, {"smiles": "O=C1CSC(c2ccc(F)cc2)N1CCN1CCCCC1", "note": "(configuration not stated)", "displacement": 1}, {"smiles": "COc1ccc(OCCn2c(=O)c3cc4c(=O)n(CCOc5ccc(OC)cc5)c(=O)c4cc3c2=O)cc1", "displacement": -7.3}, {"smiles": "CC(C)(C)C(=O)Nc1ccc(C(=O)Nc2cccc(I)c2)cc1", "displacement": 9.7}, {"smiles": "O=C1NC(=Nc2ccc(Br)cc2)S/C1=C\\c1ccccc1[N+](=O)[O-]", "displacement": 14.8}, {"smiles": "N/C(=N\\OC(=O)/C=C/c1ccccc1)c1ccc(Br)cc1", "displacement": -2.7}, {"smiles": "O=C(Nc1ccc(F)c([N+](=O)[O-])c1)c1ccc(OCc2ccccc2)cc1", "displacement": 16.9}, {"smiles": "O=C(O)c1ccc(-n2ncc(Cl)c(Cl)c2=O)cc1", "displacement": 11.4}, {"smiles": "COc1ccc(Br)cc1Cn1c(=O)[nH]c2cc([N+](=O)[O-])ccc21", "displacement": -4.5}, {"smiles": "COc1ccc(COC(=O)C2=C(C)NC3=C(C(=O)CCC3)C2c2coc3ccc(C)cc3c2=O)cc1", "note": "(configuration not stated)", "displacement": -5.1}, {"smiles": "Cc1ccc(-n2c(C)cc(/C=C3\\NC(=S)NC3=O)c2C)cc1C", "displacement": -1.9}, {"smiles": "COc1ccc(C(=O)c2cnc[nH]2)cc1", "displacement": 0.3}, {"smiles": "Cc1ccc(C(=O)N/C(=C/c2ccco2)c2nc3ccccc3[nH]2)cc1", "displacement": 0.8}, {"smiles": "CCN1CCN(C(=O)c2cc([N+](=O)[O-])cc([N+](=O)[O-])c2)CC1", "displacement": 10.6}]}]}
